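Protocol summary: plate cells (96-well), add compound at 5 concentrations, incubate 48 h, interpolate endpoints linearly. GI50 marks 50% less growth.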 Active and inactive are the calls of the source. Rule as the data show it: active = GI50 up to about 1.1 µM and inactive = higher. Square brackets hold non-standard residues; d marks the D form. Peptide text beside a SMILES is read from it. * marks the point of attachment. Bn2Val = CC(C)[C@@H](C(=O)*)N(Cc1ccccc1)Cc1ccccc1; NMeV = CN[C@H](C(=O)O)C(C)C; X25 = COc1ccc(CN*)c(OC)c1; dNMeA = CN[C@H](C)C(=O)O
System: NCI-H322M
Test: NCI tumour cell line growth inhibition, 48 h

Row | SMILES | GI50
1 | N#Cc1c(N)nc(SCc2ccccc2)c(C#N)c1-c1ccc(O)cc1 | inactive: 12.9 µM
2 | O=C(N/N=C(/c1nc2ccc(Cl)cc2[nH]c1=O)C(O)c1ccc(Cl)cc1Cl)c1ccncc1 (stereo unspecified) | inactive: > 100 µM
3 | O=C(O)c1nc2ccc(C(F)(F)F)cc2nc1NCc1ccc(F)cc1 | inactive: 23.7 µM
4 | COc1ccc(CNC(=O)[C@@H]2CCCN2C(=O)[C@@H](C)N(C)C(=O)[C@H](C(C)C)N(C)C(=O)[C@@H](NC(=O)[C@H](C(C)C)N(Cc2ccccc2)Cc2ccccc2)C(C)C)c(OC)c1 (Bn2Val-V[NMeV][dNMeA]P-X25) | inactive: 2.77 µM
5 | CC1(C)Oc2ccc3c(=O)cc(-c4ccccc4)oc3c2C1C(=O)O (stereo unspecified) | inactive: > 100 µM
6 | O=NN(CCCl)C(=O)NC1CCCCC1 [LOMUSTINE] | inactive: 83.4 µM
7 | O=C1c2ccccc2C(=O)c2c(NCC3CO3)ccc(NCC3CO3)c21 (stereo unspecified) | inactive: 12.9 µM
8 | COc1ccc(C2C3COc4ccccc4C3=NN2c2ccccc2)cc1 (stereo unspecified) | inactive: > 100 µM
9 | Cc1ccc(Nc2nnc(-c3ccc4c(c3)OCO4)o2)c(C)c1 | inactive: > 100 µM
10 | O=C(c1ccccc1)C1S(=O)(=O)OCCOS1(=O)=O | inactive: > 100 µM
11 | CC1=CP(=O)(OC(C)C)CC(C)=C1Cl (stereo unspecified) | inactive: > 100 µM
12 | COc1ccc(/C=[N+](\[O-])[C@H](COCc2ccccc2)c2ccccc2)cc1 | inactive: > 100 µM
13 | Cc1cc2c(CC(=O)O)n[nH]c2c(C(=O)O)c1C | inactive: > 100 µM
14 | CC(=C(c1ccccc1)c1ccccc1)N1C(=O)CC(=O)N1C | inactive: > 100 µM
15 | Cn1c2c(c3ccccc31)CCN(CCCCN1CCN(c3cccc(Cl)c3)CC1)C2=O | inactive: 13.7 µM
16 | CC1=CCC[C@]2(C)C1=CC(=O)O[C@H]2c1ccoc1 | inactive: > 100 µM
17 | COC(=O)/C=C(\C(=O)OC)c1c2c3c(cc(OC)c(OC)c3c3ccccc13)CCN2C | inactive: > 100 µM
18 | CCOC(=O)/C(=C/c1ccc(C#N)cc1)N(CC)CC | inactive: > 100 µM
19 | COC(=O)Cc1ccc2c(cnn2-c2ccccc2)c1OC | inactive: > 10 µM
20 | Cc1cc2[nH]c3c(C#N)c(-c4ccccc4)c(/C=N/c4ccc(Cl)cc4)c(=O)n3c2cc1C | inactive: > 100 µM
21 | Oc1ccc(/C=N/c2nccs2)c(O)c1 | inactive: > 100 µM
22 | C#CCNC(=O)CCC(N)C(=O)O (stereo unspecified) | inactive: > 100 µM
23 | COC1=C2C=[N+](C)C3C(=C2C=CC1OC)Cc1cc2c(cc13)OCO2 (stereo unspecified) | inactive: 14.7 µM

Row | SMILES | GI50
24 | NC(S)=Nc1cc(Cl)ccc1Cl | inactive: > 100 µM
25 | C(=N\NC1=NCCN1)/c1cccc2cc3ccncc3nc12 | inactive: 4.58 µM
26 | COc1nc2ncc([C@@H](OC(C)=O)[C@@H](COC(C)=O)OC(C)=O)nc2c(=O)[nH]1 | inactive: > 100 µM
27 | CC(=O)OCCc1cc2ccccc2oc1=O | inactive: > 100 µM
28 | O=C1NC2OC(CO)C(O)C(O1)C2O (stereo unspecified) | inactive: > 100 µM
29 | CN(C)C1(C#N)CCC2(CC1)OCCO2 | inactive: > 100 µM
30 | Cc1nc(NC(=S)NC(=O)c2ccc(Cl)c(Cl)c2)sc1C(=O)/C=C/c1ccccc1[N+](=O)[O-] | inactive: 31.6 µM
31 | CN(C)CCNC(=O)c1cccc2ccc(-c3ccc(O)cc3)nc12 | inactive: 2.37 µM
32 | NC1=Nc2ccccc2Sc2nnc(-c3ccc(Cl)cc3)n21 | inactive: > 100 µM
33 | COc1cc2c(cc1OC)C(=O)N(c1ccc(OCCN3CCCC3)cc1)C2 | inactive: > 100 µM
34 | O=C(CCCC(=O)Nc1ccc(Cl)cc1Cl)CC(=O)c1ccc2ccccc2c1 | inactive: > 100 µM
35 | C#C[C@]1(O)CC[C@H]2[C@@H]3CCC4=C/C(=N/OC(=O)c5cccc6cc7ccccc7nc56)CC[C@@H]4[C@H]3CC[C@@]21CC | inactive: > 100 µM
36 | CCN(CC)CCn1ncc2c(N)ncnc21 | inactive: > 100 µM
37 | O=C1CCC2(CC1CC(Sc1ccccc1)Sc1ccccc1)OCCO2 (stereo unspecified) | inactive: 92.7 µM
38 | COc1ccc(C(=O)/C=C/c2cc(O)c(O)cc2F)c(OC)c1 | inactive: 3.95 µM
39 | COc1cc(CCc2ccc(OC(C)=O)cc2)cc(OC)c1OC | inactive: > 100 µM
40 | Cc1c2cc[n+](Cc3ccc(I)cc3)cc2c(C)c2c1[nH]c1ccccc12 | active: 1.01 µM
41 | O=C(NCCCCNc1cccccc1=O)OCc1ccccc1 | inactive: > 100 µM
42 | CC(CC(=O)CO[C@H]1[C@H](O)[C@@H](O)[C@@H](O)[C@@H]2NC(=O)c3c(cc4c(c3O)OCO4)[C@H]21)OC1OC(CO)C(O)C(O)C1O (stereo partly specified) | active: 0.364 µM
43 | CN1c2ccccc2C2c3c(O)ccc(O)c3C=C([N+](=O)[O-])C21 (stereo unspecified) | inactive: 2.19 µM
44 | COc1nc(OC)c2c(=O)oc(-c3ccccc3)cc2n1 | inactive: > 100 µM
45 | C=CCOC(=O)CC[N+]1=CCC(c2ccccc2)(c2ccccc2)O1 | inactive: > 100 µM
46 | Cc1ccc(S(=O)(=O)NC(=O)Nc2nnc(S(N)(=O)=O)s2)cc1 | inactive: > 100 µM

Row | SMILES | GI50
47 | COc1cc([C@@]23OC[C@@H]4[C@@H](OC[C@@H]42)c2cc4c(cc23)OCO4)cc(OC)c1OC | active: < 0.01 µM
48 | O=c1oc2ccccc2n1CCN1CCCCC1 | inactive: > 100 µM
49 | CN(CCN(C)CCN(C)C(=O)Cc1ccc(Cl)c(Cl)c1)CCN1CCCC1 | inactive: 21.2 µM
50 | COc1cc(C(N)=O)cc(NC(=O)/C=C/c2ccccc2)c1OC | inactive: 35.2 µM
51 | CC(=O)CC(=O)Nc1ccc(OS(N)(=O)=O)cc1 | inactive: > 100 µM
52 | COc1ccc2nc(NC(=O)C(=O)C(C#N)c3ccc([N+](=O)[O-])cc3)sc2c1 (stereo unspecified) | inactive: > 100 µM
53 | CCOC(=O)c1c(NNc2ccccc2)nc2ccccc2c1-c1ccccc1 | inactive: 41.1 µM
54 | O=C1CCC(=O)N1n1c(Cc2ccccc2)n[nH]c1=O | inactive: > 100 µM
55 | COC(=O)C1CC/C(=N/C2c3ccccc3-c3ccccc32)N1 (stereo unspecified) | inactive: > 100 µM
56 | c1ccc([C@@H]2N[C@@]3(CO[Si](c4ccccc4)(c4ccccc4)c4ccccc4)CC[C@H]4CN[C@@H]2[C@H]43)cc1 | inactive: 10.5 µM
57 | O=C(O)C1=NN(c2ccc(S(=O)(=O)O)cc2)C2(C1)SCC(=O)N2c1nc2ccccc2s1 (stereo unspecified) | inactive: > 100 µM
58 | O=C(Nc1ccc(Cl)cc1)C(=O)C(C(=O)c1ccccc1-c1ccccc1)C1OC(=O)c2ccccc21 (stereo unspecified) | inactive: 20.2 µM
59 | Cc1ccc(C)c(NC(=O)C(=O)C2C(=O)C3=C(CC2(C)C)Nc2ccccc2S3)c1 (stereo unspecified) | inactive: > 100 µM
60 | COc1cc(/C=C2/C(=O)N(C(=O)c3ccccc3O)N=C2C)ccc1O | inactive: 1.62 µM
61 | CC(=O)c1ccc(NCN2C(=O)c3ccccc3C2=O)cc1 | inactive: > 100 µM
62 | [N-]=[N+]=NC1=CC(=O)c2cccc3cccc1c23 | inactive: 52.2 µM
63 | C/C(CC(O)(C(F)(F)Cl)C(F)(F)Cl)=N\Nc1ccccc1 | inactive: 30.4 µM
64 | COc1ccc(C2=NN(C(=N)S)C(c3ccccc3)C2)cc1 (stereo unspecified) | inactive: 69.8 µM
65 | CC(NNC(=O)CC(=O)N(C(=O)c1ccccc1)c1ccc(Cl)cc1)c1cc2ccccc2oc1=O (stereo unspecified) | inactive: > 10 µM
66 | C=CCOc1ccc(C(=N/NC(=O)c2ccccc2)/N=N/c2ccccc2)cc1OC | inactive: 43 µM
67 | CCn1c2ccc(C(=O)CCCN(C)C)cc2c2cc(C(=O)CCCN(C)C)ccc21 | active: 0.843 µM
68 | CCC(C)C1=C(OC(C)=O)[N+]2([O-])Oc3ccc(-c4c(OC(C)=O)c(OC(C)=O)c(-c5ccc(OC(C)=O)cc5)c(OC(C)=O)c4OC(C)=O)cc3OC2(C(C)CC)C(=O)N1OC(C)=O (stereo unspecified) | inactive: 16.3 µM
69 | COc1ccc2cc3n(c(=O)c2c1)CCc1c-3cc(OC)c(OC)c1OC | inactive: > 100 µM

Row | SMILES | GI50
70 | CCCCCC/C=C1\CCC(CN2CCOCC2)C1=O (stereo unspecified) | inactive: 22.2 µM
71 | O=c1/c(=C/c2ccc3c(c2)OCO3)sc2nnc(Cc3ccccc3)n12 | inactive: > 100 µM
72 | CC1=C(/C=C/C(C)=C/C=C/C(C)=C/C(=O)O)C(C)(C)CCC1 [TRETINOIN] | inactive: > 76.4 µM
73 | CCCCCCC(=O)OC[n+]1ccc(-c2c(COC(=O)NC(C)C)c(COC(=O)NC(C)C)c3n2CCC3)cc1 | inactive: > 100 µM
74 | O=C(C/N=C(\CN(c1ccccc1)c1ccccc1)Oc1c(Cl)cc(Cl)cc1Cl)n1cnc2ccccc21 | inactive: > 100 µM
75 | O=C(O)C1C2C=CC(O2)C1C(=O)NCc1cccnc1 (stereo unspecified) | inactive: > 100 µM
76 | COc1ccc(C2C(C(=O)c3ccccc3)=C(O)C(O)(CC(=O)c3ccccc3)N2c2ccc(OC)cc2)cc1 (stereo unspecified) | inactive: 29.6 µM
77 | COC(=O)c1cc(CC(C)C)c2c(c1)[nH]c1ccccc12 | inactive: > 100 µM
78 | S=C1NCCN1C(=S)NC1CCCCC1 | inactive: 67.1 µM
79 | CN1C(=O)C(O)CC1c1cccc(C(F)(F)F)c1 (stereo unspecified) | inactive: > 100 µM
80 | C(=N\N=C1NCCCCN1)/c1ccc2ccccc2c1 | inactive: 34 µM
81 | CC(=O)OC(C)c1cc2c(s1)C(=O)c1scc(C(C)OC(C)=O)c1C2=O (stereo unspecified) | inactive: 1.76 µM
82 | Nc1ccc2c(c1)C(=O)c1ccc(F)cc1-2 | inactive: > 100 µM
83 | COCOc1c(C(O[Si](C)(C)C(C)(C)C)c2cnc(Sc3ccccc3)n2C)ccc(OC)c1OC (stereo unspecified) | inactive: 2.85 µM
84 | O=[N+]([O-])c1cccc(-c2ncnc(-c3cccc([N+](=O)[O-])c3)n2)c1 | inactive: > 100 µM
85 | Cc1ccc(O)c(C2=CC3=NNC(=O)C3C(c3cccc(Br)c3)C2)c1 (stereo unspecified) | inactive: 14.6 µM
86 | COc1ccc(C[C@@H]2CN(C(=O)c3ccccc3)[C@H](Cc3ccc(O)cc3)CN2C(=O)c2ccccc2)cc1Br | inactive: > 100 µM
87 | O=C1OC(c2ccco2)=N/C1=C\c1ccc(Cl)c(Cl)c1 | inactive: > 100 µM
88 | O=C1CC(C(OCc2ccccc2)C(OCc2ccccc2)C(OCc2ccccc2)C(COCc2ccccc2)OCc2ccccc2)CC(=O)N1 (stereo unspecified) | inactive: > 100 µM
89 | COc1ccc(N[C@H](CSc2ccc(C)cc2)c2ccc(F)cc2)cc1 | inactive: > 100 µM
90 | CC(C)(C)C(=O)OCC1OC(N=[N+]=[N-])C(OC(=O)C(C)(C)C)C(OC(=O)C(C)(C)C)C1OC(=O)C(C)(C)C (stereo unspecified) | inactive: > 100 µM
91 | CC(C)(CCC(C)(C)N1OC1c1ccccc1)N1OC1c1ccccc1 (stereo unspecified) | inactive: 31.5 µM

— ChEMBL document CHEMBL1201862, “PubChem BioAssay data set” (2004)
